This passage reports binding results from paper PMC7673117.

Protein sequences, listed by entry. Tags and fused reporters are not part of them. Residues count along the entry.
UniProt P13747, residues 22-358: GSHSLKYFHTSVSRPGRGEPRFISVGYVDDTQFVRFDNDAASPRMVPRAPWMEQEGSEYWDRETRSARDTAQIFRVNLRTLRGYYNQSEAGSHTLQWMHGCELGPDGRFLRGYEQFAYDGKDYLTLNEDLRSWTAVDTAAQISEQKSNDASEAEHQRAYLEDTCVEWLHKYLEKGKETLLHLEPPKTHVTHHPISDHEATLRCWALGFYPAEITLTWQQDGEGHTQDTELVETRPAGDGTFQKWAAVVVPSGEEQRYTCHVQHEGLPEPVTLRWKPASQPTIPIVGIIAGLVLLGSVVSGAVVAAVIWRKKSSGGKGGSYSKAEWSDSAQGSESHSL

The target in this assay is human leukocyte antigen (HLA)-E on 721.174 cells (human (endogenous in 721.174 cells)) (UniProt P13747). Description: flow cytometry on cells; only the binder purified.

No constants are given. Whether binding was seen depends on the method and setting. Some binding calls cover weakened binding; strength is not graded here.

B1: LMP1 peptide variant … (GID) (peptide)
peptide: GIDPHLPTL
Regarding B1, the binding result was “binds”.
